The RNAGym collection of RNA variant scans (doi:10.1093/nar/gkz1192)
The source gives no read counts; variants with many changes may rest on few reads.

B1: CPEB3 Ribozyme (parent)
chain: UAACAGGGGGCCACAGCAGAAGCGUUCACGUCGCAGCCCCUGUCAGAUUCUGGUGAAUCUGCGAAUUCUGCUGUAUAUCUC

Variants of: B1
Assay: self-cleavage, relative activity (ratio to wild type); higher = more cleavage; in vitro, sequencing
Outline: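 CPEB3 self-cleaving ribozyme mutant libraries were made by rounds of error-prone PCR, barcoded, and transcribed in vitro with T7 RNA polymerase for 5 hours at 37°C. Cleavage occurred during transcription and a 15 min DNase I step before EDTA stop. RNAs were reverse transcribed with template switching and Illumina-sequenced, with DNA sequencing mapping barcodes to variants. Relative activity is the variant's cleaved/total read fraction divided by wild type's (minimum 5 reads), averaged across three batches.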

Variant | self-cleavage
A21G U31C U43C U60A | 0.09
A21G U31C U49A | 0.16
A21G U31G A45G A56C U72A | 0.04
A21G U41A A56U A65G | 0.16
A21G U41A A56U U78C | 0.45
A21G U41C A56G | 0.44
A21G U41C C68G U80A | 0.09
A21G U41C U43C | 0.31
A21G U41C U48C | 0.36
A21G U41C U54A | 0.39
A21G U41C U54C A65G | 0.33
A21G U41C U60G | 0.16
A21G U41C U72A U76C U78C | 0.16
A21G U43A A45U | 0.6
A21G U43A A56G | 0.71
A21G U43A U66A U76C | 0.55
A21G U43A U69C U80C | 0.16
A21G U43C A56G A64G A65U | 0.11
A21G U43C C71G | 0.19
A21G U43C G73A | 0.36
A21G U43C U48A A65G | 0.08
A21G U43C U48C U51A U66C U67C U74C | 0.19
A21G U43C U54C U74A | 0.38
A21G U43C U60C U66C U69A U76C | 0.09

Variant | self-cleavage
A21G U43C U66C | 0.47
A21G U43C U80C | 0.49
A21G U43G A45G A57G A64G | 0.18
A21G U43G A47G A64G U74C | 0.28
A21G U43G A65C | 0.19
A21G U48A U54C | 0.08
A21G U48C A65G U72C | 0.2
A21G U48C A77U | 0.42
A21G U48C C71U U76C U78C | 0.17
A21G U48C U51A C79U | 0.32
A21G U48C U54A U69C | 0.37
A21G U48C U60C | 0.21
A21G U48C U67C | 0.12
A21G U49A U78G C81U | 0.52
A21G U49C U58C U66C U72C A75G | 0
A21G U49C U66G A77G | 0
A21G U51A U66C | 0.9
A21G U51A U69C C79G | 0.27
A21G U51A U72A | 0.3
A21G U51C A65G | 0.28
A21G U51C G70U U80C | 0.13
A21G U51C U54A | 0.12
A21G U51C U58C U66C U72A | 0.21
A21G U51G A64G U80C | 0.62

Variant | self-cleavage
A21G U54A A56G U60C | 0.11
A21G U54A U72A | 0.26
A21G U54C C62U U69C U78A | 0.04
A21G U58C G63A | 0.29
A21G U60A U67A | 0.09
A21G U60A U69C | 0.19
A21G U60A U74G | 0.37
A21G U60C A64G | 0.32
A21G U66C C68A | 0.3
A21G U67C U72C A77U | 0.1
A21G U67G U72C | 0.12
A21G U69C G70U | 0.52
A21G U74C C81U | 1.07
A21G U74C U80A | 1.16
A21U A28G G33A U72A | 0.07
A21U A28G U31C U66A | 0.41
A21U A28U U31C U43C A56G A64U | 0.11
A21U A28U U78C | 0.09
A21U A35U U41A A56G | 0.05
A21U A45U U66A | 0.57
A21U A56U U72A | 0.13
A21U C32U C39G U43G | 0.22
A21U C37A U51A U78C | 0.18
A21U C38U G46C A47G | 0.1

Variant | self-cleavage
A21U G24A A47G U54C U74C | 0.27
A21U G30A U31C U51A U69C | 0.07
A21U U25A A35G U51C U80C | 0.54
A21U U25A A35U U72G U74C | 0.05
A21U U25C A35U A64G A77G | 0.04
A21U U25C G55U U60C U80C | 0.08
A21U U25C U31C A35C U72C U76C U78A | 0.13
A21U U25C U51C | 0.14
A21U U25C U54A | 0.21
A21U U26A U72C | 0.18
A21U U26C A56G | 0.08
A21U U26C A57G U74A A75U | 0.36
A21U U26C C81A | 0.12
A21U U26C U58G A77U | 0.1
A21U U31A A35G | 0.76
A21U U31A A45G U49C U76C | 0.11
A21U U31A G52A G70C | 0.09
A21U U31A G52A G70C U76C C79U | 0.09
A21U U31C A35G | 0.37
A21U U31C A47G U67C | 0.1
A21U U31C A56G U76C | 0.45
A21U U31C U41A U51A | 0.13
A21U U31C U72A | 0.13
A21U U41A U43C | 0.17

Variant | self-cleavage
A21U U41A U43C G46U U72G | 0.03
A21U U41C A45G | 0.35
A21U U41C U66A | 1.06
A21U U41C U80A | 0.3
A21U U41G U80A | 0.25
A21U U43A U48C G55U U72C | 0.11
A21U U43C U49A A57G | 0.11
A21U U48C U49A U54A A75G U78C | 0.07
A21U U48C U74C C79A U80C | 0.29
A21U U49A U58A U60A U67C U78C | 0.06
A21U U49C U54A U74C | 0.15
A21U U51A U54C | 0.14
A21U U54A U60A A64G | 0.27
A21U U54A U66C | 0.3
A21U U60A U69C | 0.08
A21U U60C U72A | 0.11
A21U U66C U72C A77U | 0.19
G22A A28G U69A | 0.09
G22A A28U U49C A57G | 0.07
G22A A64G A77U | 0.22
G22A C23U U26C U49G | 0.09
G22A C38U U41C G63U | 0.05
G22A G36A U49C U69A | 0
G22A U25C A35U A47G | 0.05

Variant | self-cleavage
G22A U25C A56G | 0.18
G22A U26C U69A A75U U76C | 0.11
G22A U31C U43C A47G A57U U67C A77U | 0.04
G22A U48C A56G U60G G73A | 0.14
G22A U54A U67C U69G | 0.05
G22A U54C U72C A77G | 0.31
G22C A28G U60C | 0.17
G22C G55C U66C | 0.13
G22C U48C U72A | 0.07
G22C U49C C62U A64U | 0.05
G22C U60C U76C | 0.14
G22C U76A C81A | 0.2
G22U A35G A77G | 0.18
G22U A35U A45C U76C U78C | 0.27
G22U G33A A35U U58C U66A U72A | 0.06
G22U G36C C38U A65G U78C | 0.09
G22U U25C A45G U54C | 0.12
G22U U26C U41C U54C A64G U78C | 0.12
G22U U41C U54A A75G | 0.2
G22U U43C U69A | 0.44
G22U U51C C68A U74A | 0.05
G22U U69A U72C | 0.15
C23A A28G U54C C79U | 0.13
C23A A28U U54C G70C U78C | 0.06

Variant | self-cleavage
C23A A35G U41A U58C U67C | 0.07
C23A A35U G36U | 0.13
C23A A47G U51C A64G U76C | 0.28
C23A A57G A64G A77G | 0.13
C23A C32U A56U A65U U69A U72A | 0.05
C23A C40U A57G | 0.13
C23A G36U C38A U41C A56G | 0.07
C23A G53C U58A U78C | 0.19
C23A U26A A35G U76A | 0.35
C23A U26C A45G U54C | 0.37
C23A U26C U43C | 0.11
C23A U41C U43C | 0.35
C23A U43C A56U | 0.16
C23A U51A U66G | 0.16
C23A U72C A77G | 0.09
C23G A28G A47G | 0.25
C23G A28G U31A U51C | 0.18
C23G A28G U31A U51C U74C | 0.19
C23G A28U A35U U49G A57G U76C | 0.1
C23G A45G U74G | 0.06
C23G A47U U58C | 0.1
C23G C34G U48C U51C G55A | 0.15
C23G C38A U67C A75G | 0.06
